Data: PMC10735225
Results are given in words; binding and its absence hold for the method and conditions named. Binding seen in cells or lysates may run through a third protein. Some entries that bind do so weakly or less than the wild type. Tags and fused reporters may be left off the sequences shown.

What was measured:
Experiment in all cases: co-IP; lysates of transfected HEK293T cells (Pierce IP Lysis Buffer); 2 ug anti-Myc or anti-FLAG antibody, Protein A/G agarose; western blot
[1] = target: T1, Myc-tagged SPATA6 (mouse) (UniProt Q3U6K5)
T1 sequence: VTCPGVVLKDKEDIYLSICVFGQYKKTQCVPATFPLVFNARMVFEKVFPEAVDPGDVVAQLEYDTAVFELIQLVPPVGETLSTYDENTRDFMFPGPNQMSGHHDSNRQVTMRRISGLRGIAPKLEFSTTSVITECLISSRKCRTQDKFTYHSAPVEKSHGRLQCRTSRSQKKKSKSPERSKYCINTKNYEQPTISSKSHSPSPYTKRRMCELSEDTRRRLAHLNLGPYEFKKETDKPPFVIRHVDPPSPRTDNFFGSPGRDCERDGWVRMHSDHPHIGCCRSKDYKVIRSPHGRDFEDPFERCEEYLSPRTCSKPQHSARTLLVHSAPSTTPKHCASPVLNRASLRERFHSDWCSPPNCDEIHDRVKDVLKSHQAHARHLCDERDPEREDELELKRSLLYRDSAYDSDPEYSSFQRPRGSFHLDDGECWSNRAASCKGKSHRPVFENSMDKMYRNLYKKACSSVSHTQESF

Myc-tagged RSPH1 (mouse) = target: T2, Myc-tagged RSPH1 (mouse) (UniProt Q8VIG3)
T2 sequence: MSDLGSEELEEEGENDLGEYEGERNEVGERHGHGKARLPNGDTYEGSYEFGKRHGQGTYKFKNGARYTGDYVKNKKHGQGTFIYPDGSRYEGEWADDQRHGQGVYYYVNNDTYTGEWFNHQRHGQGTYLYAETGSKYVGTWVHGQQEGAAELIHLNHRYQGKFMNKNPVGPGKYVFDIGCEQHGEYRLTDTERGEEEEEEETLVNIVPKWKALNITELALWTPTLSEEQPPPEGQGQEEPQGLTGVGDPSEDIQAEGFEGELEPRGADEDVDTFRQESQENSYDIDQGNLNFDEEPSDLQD

[2] = target: T3, Myc-tagged CFAP20 (mouse) (UniProt Q8BTU1)
T3 sequence: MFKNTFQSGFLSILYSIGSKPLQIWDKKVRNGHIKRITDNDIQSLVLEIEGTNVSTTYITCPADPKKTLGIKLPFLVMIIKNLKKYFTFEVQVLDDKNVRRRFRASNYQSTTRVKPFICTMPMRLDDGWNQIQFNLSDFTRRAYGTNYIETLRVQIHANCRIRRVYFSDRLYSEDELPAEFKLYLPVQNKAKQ

Myc-tagged ODAD1 (mouse) = target: T4, Myc-tagged ODAD1 (mouse) (UniProt Q3UX62)
T4 sequence: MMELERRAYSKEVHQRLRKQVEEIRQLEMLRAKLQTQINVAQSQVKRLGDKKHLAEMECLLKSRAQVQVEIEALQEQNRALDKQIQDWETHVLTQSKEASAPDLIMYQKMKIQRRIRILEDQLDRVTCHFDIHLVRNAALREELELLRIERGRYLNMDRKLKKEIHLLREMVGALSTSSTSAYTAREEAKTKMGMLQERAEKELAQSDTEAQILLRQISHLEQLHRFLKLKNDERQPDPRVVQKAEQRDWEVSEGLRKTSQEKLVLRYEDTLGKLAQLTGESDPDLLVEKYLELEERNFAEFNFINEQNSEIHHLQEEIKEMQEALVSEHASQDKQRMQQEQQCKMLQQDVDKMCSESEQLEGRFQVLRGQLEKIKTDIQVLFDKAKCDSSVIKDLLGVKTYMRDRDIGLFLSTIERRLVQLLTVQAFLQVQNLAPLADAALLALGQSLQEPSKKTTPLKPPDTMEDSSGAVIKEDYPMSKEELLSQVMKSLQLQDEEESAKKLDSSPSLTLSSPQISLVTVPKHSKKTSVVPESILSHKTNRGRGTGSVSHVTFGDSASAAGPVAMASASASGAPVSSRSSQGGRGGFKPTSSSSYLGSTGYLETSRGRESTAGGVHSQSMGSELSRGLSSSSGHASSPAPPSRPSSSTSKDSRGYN

Myc-tagged ODAD3 (mouse) = target: T5, Myc-tagged ODAD3 (mouse) (UniProt Q8BSN3)
T5 sequence: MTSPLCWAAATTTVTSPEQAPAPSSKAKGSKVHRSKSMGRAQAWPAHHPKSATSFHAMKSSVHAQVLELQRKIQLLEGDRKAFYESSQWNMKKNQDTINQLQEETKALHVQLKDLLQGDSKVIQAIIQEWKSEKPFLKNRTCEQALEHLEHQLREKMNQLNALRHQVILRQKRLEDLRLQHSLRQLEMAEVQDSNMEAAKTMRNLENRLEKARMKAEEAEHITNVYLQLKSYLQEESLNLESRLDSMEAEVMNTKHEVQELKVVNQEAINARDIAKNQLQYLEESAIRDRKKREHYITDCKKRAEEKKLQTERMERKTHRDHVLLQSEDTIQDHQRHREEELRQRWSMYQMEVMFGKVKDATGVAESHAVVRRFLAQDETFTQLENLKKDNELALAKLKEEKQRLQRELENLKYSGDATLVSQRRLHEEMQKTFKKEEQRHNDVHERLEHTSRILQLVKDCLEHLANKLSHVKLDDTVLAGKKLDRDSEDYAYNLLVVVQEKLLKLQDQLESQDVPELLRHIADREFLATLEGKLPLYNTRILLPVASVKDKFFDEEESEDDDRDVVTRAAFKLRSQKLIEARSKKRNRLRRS

Measured: binding

B1: FLAG-tagged CFAP52 (cilia and flagella associated protein 52) (protein, UniProt Q5F201-1 1-620)
chain: MEEQVLPELDVAELELQAVIGFNGHVPNGLKCHPDQEHLIYPLGCTVLIQAINTNEQNFLHGHGNNVSCVTISKEGDYIASGQVTFMGFKADIILWDFKKRELIARLSLHKGKIEALAFSPNDLYLVSLGGPDDGSVVVWSIAKRDAICGSPAAGLNVGNATSVVFSRCRDEMFVTAGNGTIRVWELDLPNRKIWPTECQTGQMKRIVLSTGMADDDSFFYLGTTTGDILKMNPKTKLLADTGPVKDKFSLGVSALRCLKMGGLLVGSGAGLLIFCKSPSYKPIKKVQLQGGITSITLRGEGHQFFVGTEESHIYRVNFTDFKETLIATCHFEAVQDIVFPFGTAELFATCAKKDIRVWHTMSKRELLRITVPNMTCHGIDFMRDGKSIISAWDDGKIRAFAPESGRLMYTINSAHRIGVTAIATTSDCKRIISGGGEGEVRVWQVGCQTQKLEEALKEHKSSVSCIRVKKNNEECVTASTDGTCIIWDLVRLRRNQMILANTLFQCVCYHPEEFQIITSGTDRKIAYWEVFDGSVIRELEGSLSGSINGMDITQEGGHFVTGGHDHLVKVWDYNEGEVTHVGVGHSGNIMAMRISPGNQYIVSVSADGAILRWKYPFAS
binds: all assays above
